# Out of some 360,000 compounds screened, about 16,000 (4.4%) were called active. This list was built around the results that the source calls inconclusive (neither active nor inactive); the mix of calls is not that of the screen. Calls come from the whole dose curve; as a rule, active = well fitted inhibition curve with a large enough effect; inconclusive = small, poorly fitted or top-dose-only effect; inactive = no such curve, though single readings can be large or run the other way. A potency beside an inconclusive call is a rough fit, not a confirmed value.
# Biological target: Bromodomain adjacent to zinc finger domain protein 2B (Homo sapiens) (UniProt Q9UIF8)
# Assay: qHTS Assay for Inhibitors of BAZ2B; note: nearly all actives have a fitted effect of over 60% in size
# Conditions: AlphaScreen BAZ2B-H3K14Ac peptide displacement; activity change, negative = inhibition: at 114 µM (top of the series)
# Method in brief: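 Compounds, titrated to a top concentration of 110 uM, were incubated 30 min at room temperature with preformed BAZ2B/acetyl-K14 H3 peptide complex (50 nM each). Proximity signal was measured by AlphaScreen after 20 min with beads.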
# % is set by controls: 0 for no effect and ±100 for the full control effect; potency is the fitted concentration of half-maximal effect; tags give direction and shape of the fitted curve.
# UniProt Q9UIF8, sequence (Q9UIF8 whole entry, looked up, the tested form may be a part): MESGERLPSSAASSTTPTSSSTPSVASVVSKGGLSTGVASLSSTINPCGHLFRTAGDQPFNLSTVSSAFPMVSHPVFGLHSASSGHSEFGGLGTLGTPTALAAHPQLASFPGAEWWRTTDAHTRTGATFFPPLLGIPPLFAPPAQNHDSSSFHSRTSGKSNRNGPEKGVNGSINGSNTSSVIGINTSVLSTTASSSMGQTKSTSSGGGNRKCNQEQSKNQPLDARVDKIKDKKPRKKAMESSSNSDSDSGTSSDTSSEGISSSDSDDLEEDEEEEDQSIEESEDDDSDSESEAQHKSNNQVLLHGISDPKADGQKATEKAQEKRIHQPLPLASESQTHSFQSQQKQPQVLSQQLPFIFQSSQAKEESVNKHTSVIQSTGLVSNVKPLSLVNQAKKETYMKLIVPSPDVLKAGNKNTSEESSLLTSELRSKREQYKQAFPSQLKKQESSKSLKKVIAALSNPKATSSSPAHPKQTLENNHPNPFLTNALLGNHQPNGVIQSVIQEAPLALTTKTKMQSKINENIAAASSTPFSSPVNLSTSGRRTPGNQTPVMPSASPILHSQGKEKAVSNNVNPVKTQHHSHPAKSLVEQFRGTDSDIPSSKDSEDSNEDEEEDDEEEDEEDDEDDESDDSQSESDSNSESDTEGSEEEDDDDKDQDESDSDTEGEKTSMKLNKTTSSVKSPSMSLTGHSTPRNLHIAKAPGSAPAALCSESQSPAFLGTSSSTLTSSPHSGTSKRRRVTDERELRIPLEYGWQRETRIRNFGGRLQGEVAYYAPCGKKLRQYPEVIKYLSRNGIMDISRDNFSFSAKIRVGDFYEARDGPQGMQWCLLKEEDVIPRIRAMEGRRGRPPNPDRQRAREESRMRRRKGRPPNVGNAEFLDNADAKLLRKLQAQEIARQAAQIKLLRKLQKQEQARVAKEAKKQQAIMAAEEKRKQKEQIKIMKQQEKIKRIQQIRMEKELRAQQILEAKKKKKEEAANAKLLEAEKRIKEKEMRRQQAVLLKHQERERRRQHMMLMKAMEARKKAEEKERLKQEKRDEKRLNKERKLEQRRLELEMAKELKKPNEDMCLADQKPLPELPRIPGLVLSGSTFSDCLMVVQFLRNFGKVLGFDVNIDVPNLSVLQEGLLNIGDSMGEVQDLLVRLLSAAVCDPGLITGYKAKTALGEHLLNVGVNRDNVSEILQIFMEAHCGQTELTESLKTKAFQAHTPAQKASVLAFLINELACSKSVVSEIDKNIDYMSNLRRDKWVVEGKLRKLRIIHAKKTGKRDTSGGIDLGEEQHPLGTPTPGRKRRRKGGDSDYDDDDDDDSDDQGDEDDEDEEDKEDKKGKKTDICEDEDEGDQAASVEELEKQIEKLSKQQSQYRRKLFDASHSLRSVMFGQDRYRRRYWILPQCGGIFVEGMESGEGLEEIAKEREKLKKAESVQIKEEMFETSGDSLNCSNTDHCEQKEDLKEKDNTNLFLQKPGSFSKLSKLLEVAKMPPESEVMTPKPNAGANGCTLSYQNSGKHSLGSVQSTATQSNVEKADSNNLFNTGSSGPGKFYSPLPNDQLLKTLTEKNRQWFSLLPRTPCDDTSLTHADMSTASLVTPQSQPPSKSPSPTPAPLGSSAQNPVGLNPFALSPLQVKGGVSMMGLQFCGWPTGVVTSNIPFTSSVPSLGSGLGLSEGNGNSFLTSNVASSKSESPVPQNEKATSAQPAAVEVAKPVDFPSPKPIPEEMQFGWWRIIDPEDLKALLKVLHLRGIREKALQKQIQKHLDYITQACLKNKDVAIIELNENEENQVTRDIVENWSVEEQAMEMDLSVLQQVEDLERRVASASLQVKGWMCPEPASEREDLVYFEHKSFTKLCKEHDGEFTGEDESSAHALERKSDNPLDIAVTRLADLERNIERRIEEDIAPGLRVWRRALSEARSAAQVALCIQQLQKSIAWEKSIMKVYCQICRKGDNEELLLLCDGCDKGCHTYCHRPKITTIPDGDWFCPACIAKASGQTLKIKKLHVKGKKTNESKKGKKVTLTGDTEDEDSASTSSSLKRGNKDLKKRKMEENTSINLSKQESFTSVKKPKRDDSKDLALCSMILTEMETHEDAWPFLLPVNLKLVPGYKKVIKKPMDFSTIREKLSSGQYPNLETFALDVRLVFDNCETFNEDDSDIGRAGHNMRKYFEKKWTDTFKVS
SMILES,Potency,"activity change, negative = inhibition"
COc1cc2c(cc1OC)CN(C(=O)C1CCCN1S(=O)(=O)c1ccc(F)cc1)CC2 (configuration not stated),"inconclusive: 1.41 µM [inhibitor, full curve, poor fit]",–
O=C1CSC(c2cccnc2)N1CCc1ccccn1 (configuration not stated),"inconclusive: 89.1 µM [inhibitor, single point]",–
COc1ccc(CC(=O)Nc2ccccc2N2CCCC2)cc1,"inconclusive: 70.8 µM [inhibitor, partial curve]",–
CC(C)C1Cc2c(C#N)c(N)sc(=S)c2CO1 (configuration not stated),"inconclusive: 89.1 µM [inhibitor, single point]",–
O=C(NCc1ccccc1)Nc1cccn(Cc2ccccc2)c1=O,–,inactive: -1.18%
CCOC(=O)c1c(NC(=O)CSc2nnc(-c3ccco3)o2)sc(C(C)=O)c1C,–,inactive: -29.3%
Cc1cc2ncc(-c3ccc(Cl)cc3)cn2n1,"inconclusive: 89.1 µM [inhibitor, single point]",–
Cc1ccc2[nH]c3c(N4CCN(Cc5ccccc5)CC4)ncnc3c2c1,"inconclusive: 89.1 µM [inhibitor, single point]",–
COc1cccc(-c2ccc3ncnc(NCc4cccnc4)c3c2)c1,"inconclusive: 56.2 µM [inhibitor, partial curve]",–
CC(=O)c1ccc(S(=O)(=O)Nc2cccc(-c3cn4c(n3)SCC4)c2)cc1,"inconclusive: 70.8 µM [inhibitor, single point]",–
COc1ccc(C(=O)NCC(c2ccco2)N2CCc3ccccc32)cc1OC (configuration not stated),"inconclusive: 56.2 µM [inhibitor, partial curve]",–
Cc1cccnc1NC(=O)CCCc1c[nH]c2ccccc12,"inconclusive: 50.1 µM [inhibitor, partial curve]",–
Cc1cc(C(=O)CSc2n[nH]c(-c3ccccc3F)n2)c(C)n1Cc1cccs1,"inconclusive: 44.7 µM [inhibitor, partial curve]",–
Cc1nc2ccc(S(=O)(=O)N(C)CC(=O)Nc3cccc(C(F)(F)F)c3)cc2s1,–,inactive: 0.726%
Cc1ccc(C(=O)/C=C/c2cn(CC(O)CN3CCOCC3)c3ccccc23)cc1 (configuration not stated),"inconclusive: 50.1 µM [inhibitor, partial curve]",–
CCOC(=O)c1cc(S(=O)(=O)N2CCN(c3ccccc3F)CC2)[nH]n1,"inconclusive: 89.1 µM [inhibitor, single point]",–
N#C/C(=C(/O)COC(=O)c1ccc(C#N)cc1)c1nc2ccccc2s1,"inconclusive: 50.1 µM [inhibitor, partial curve]",–
Fc1ccc(/C=N/NC2=Nc3cccc4cccc2c34)cc1,"inconclusive: 89.1 µM [inhibitor, single point]",–
COc1cc(C(=O)OCC(=O)N(CC(C)C)C2CCS(=O)(=O)C2)cc(OC)c1C (configuration not stated),"inconclusive: 79.4 µM [inhibitor, single point]",–
O=C(Nc1ccc(Cl)cc1C(=O)NCc1cccnc1)c1ccc(Cl)cc1Cl,–,inactive: 10.8%
O=C(CSc1nccn1Cc1ccccc1)Nc1ccccc1,"inconclusive: 56.2 µM [inhibitor, partial curve]",–
COc1ccc(N2CCN(CCCNC(=O)Cn3c(-c4cccs4)cc4ccccc43)CC2)cc1,"inconclusive: 17.8 µM [inhibitor, full curve]",–
COc1ccc(N=C2O/C(=C/c3sc(=S)n(CC4CCCO4)c3O)N=C2C#N)cc1 (configuration not stated),active: 8.91 µM,–
O=C(O)CCNc1ccc(Cl)cc1,"inconclusive: 79.4 µM [inhibitor, single point]",–

SMILES,Potency,"activity change, negative = inhibition"
CSc1nnc2c3cc(F)ccc3n(Cc3ccccc3)c2n1,–,inactive: -5.2%
O=S(=O)(N[C@H]1C[C@@H](NS(=O)(=O)OCC(Cl)(Cl)Cl)C2CCCCC21)OCC(Cl)(Cl)Cl (some centres not stated),"inconclusive: 100 µM [inhibitor, single point]",–
Cc1cnc(C(=O)N2CCN(S(=O)(=O)c3ccc4ccccc4c3)CC2)cn1,"inconclusive: 89.1 µM [inhibitor, single point]",–
O=C1OC(c2ccc(Cl)cc2)/C(=C(/O)c2ccccc2)C1=O (configuration not stated),"inconclusive: 89.1 µM [inhibitor, single point]",–
COc1ccc(CN2CCNC(=O)C2CC(=O)NC2CCC2)c(OC)c1 (configuration not stated),–,inactive: -12.6%
CCc1cccc(NC(=O)CSC2=Nc3ccccc3N=C(c3ccc(F)cc3)C2)c1,–,inactive: -14.9%
Cc1c(Cl)cccc1NC(=O)c1ncn[nH]1,active: 20 µM,–
CCOc1cc(CNc2ccc(O)cc2)ccc1OCc1ccc(Cl)cc1Cl,"inconclusive: 89.1 µM [inhibitor, single point]",–
CCc1ccc(-c2csc3[n+]2CCN3C(C)=O)cc1,"inconclusive: 89.1 µM [inhibitor, single point]",–
CCN1CCN(c2nc3c(S(=O)(=O)c4ccc(Br)cc4)nnn3c3ccsc23)CC1,–,inactive: -1.89%
COc1ccc(NC(=O)Cn2c(SCc3cc(C)ccc3C)nc3ccncc32)c(OC)c1OC,"inconclusive: 44.7 µM [inhibitor, partial curve]",–
CCOC(=O)C(Sc1nnc(-c2ccncc2)o1)C(C)=O (configuration not stated),–,inactive: 3.05%
O=C(NCc1ccccc1)c1ccc(NC(=O)c2ccco2)cc1,–,inactive: -25.8%
COc1ccc2c(CNCc3cccs3)c(C(=O)O)n(Cc3ccccc3)c2c1,"inconclusive: 79.4 µM [inhibitor, single point]",–
Cc1c(CCNC(=O)c2ccc(Br)o2)sc2nc(-c3ccc(F)cc3)nn12,–,inactive: -23.1%
CN(Cc1c(F)cccc1Cl)C(=O)CCc1c[nH]c2ccccc12,active: 70.8 µM,–
Cc1ccc(OCC(=O)Nc2cc3nn(-c4ccccc4)nc3cc2C)cc1,–,inactive: 0.791%
COc1ccc(C(O)P(=O)(OC(C)C)c2ccc(N(C)C)cc2)c(OC)c1 (configuration not stated),–,inactive: -8.38%
Cc1ccc(OCC(=O)OCc2cc(=O)n3nc(-c4cccs4)sc3n2)cc1C,–,inactive: -16.2%
O=C(O)Cc1ccc(C(=O)c2ccccc2)s1,–,inactive: -1.26%
COc1ccc(NC(=O)c2ccc(N3C(=O)C4CC=C(Cl)CC4C3=O)cc2)cc1 (configuration not stated),"inconclusive: 89.1 µM [inhibitor, single point]",–
O=C(c1ccc(C(F)(F)F)cc1)N1CCCCC1,–,inactive: 5.06%
O=C(CCS(=O)(=O)c1ccc(Br)cc1)N1CCN(c2ccc(F)cc2)CC1,active: 56.2 µM,–

# From PubChem BioAssay AID504333 (National Center for Advancing Translational Sciences (NCATS), 2011)
